Test results from the RNAGym collection of RNA variant scans (doi:10.1093/nar/gkz1192).
Read counts are not given, so values of variants with three or more changes are uncertain.

B1: CPEB3 Ribozyme (parent)
chain: UAACAGGGGGCCACAGCAGAAGCGUUCACGUCGCAGCCCCUGUCAGAUUCUGGUGAAUCUGCGAAUUCUGCUGUAUAUCUC

Variants of: B1
Experiment: self-cleavage, relative activity (ratio to wild type); higher = more cleavage; in vitro, sequencing
Outline: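 Relative activity compares each variant's cleaved/total read fraction with that of the unmutated ribozyme. To get these fractions, barcoded CPEB3 ribozyme libraries from rounds of error-prone PCR were transcribed with T7 RNA polymerase for 5 hours at 37°C and then given 15 min of DNase I treatment before EDTA was added. The RNAs were reverse transcribed with template switching and sequenced on Illumina, and DNA sequencing linked barcodes to variants. A minimum of 5 reads applied, and three batches were averaged.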
For UAACAGGGGGCCACAGUAGAAGCGAUCACGCCGCAGCCCCUGUCAGAUUCUGGUGAAUCUGCGAAUUCUGCUGUAUAUCUC [C17U U25A U31C], the self-cleavage was 0.22. In the case of UAACAGGGGGCCACAGUAGAAGCGCUCGCGUCGCAGCCCCAGUCAGAUUCUGGUGAAUCUGCUAAUUCUGCUGUAUAUCUC [C17U U25C A28G U41A G63U], the self-cleavage is reported as 0.11. UAACAGGGGGCCACAGUAGAAGCGCUCGCGUCGCAGCCCCUGUCAGAUUCUGGUGAAUCUGCGAAUUCCGCUGUAUAUCUC [C17U U25C A28G U69C] showed a self-cleavage of 0.18. In the case of UAACAGGGGGCCACAGUAGAAGCGCUCACGUCGCAGCCCCUGUCAGUUCCUGGCGAAUCUGCGAAUUCUGCUGUAUAACUC [C17U U25C A47U U49C U54C U78A], the self-cleavage is reported as 0.07. In the case of UAACAGGGGGCCACAGUAGAAGCGCUCACGUCGCAGCCCCUGUCAGAUUCUGGUGAGUCUGCGAAUUCCGCUGCAUAUCUC [C17U U25C A57G U69C U74C], the self-cleavage is reported as 0.32. UAACAGGGGGCCACAGUAGAAGCGCACACGUCGCAGCCCCUGUCAGAUUCUGGUGAAUCUGCGAAUUCUGCUGUAUAUCUC [C17U U25C U26A] gave a self-cleavage of 0.63. For UAACAGGGGGCCACAGUAGAAGCGCUCACGCCGCAGCCCCUGUCAGAUUCUGGUGAAUCUGCGAAUUCUGCAGUAUAUCUC [C17U U25C U31C U72A], the self-cleavage was 0.16. With UAACAGGGGGCCACAGUAGAAGCGCUCACGUCGCAGCCCCUGACUGACUCUGGUGAAUCUGCGAACUCUGCUGUAUAUCUC [C17U U25C U43A A45U U48C U66C] the self-cleavage was 0.19. For UAACAGGGGGCCACAGUAGAAGCGCUCACGUCGCAGCCCCUGUCAGAUUCUGGUGAAUCUGCGAAUUCUGCUGUAUACCUC [C17U U25C U78C], the self-cleavage was 0.12. UAACAGGGGGCCACAGUAGAAGCGUACACGUCCCAGCCCCUGUCAGAUUCUGGUGAAUCUGCGAAUUCCGCUGUAUAUCAC [C17U U26A G33C U69C U80A] showed a self-cleavage of 0.15. For UAACAGGGGGCCACAGUAGAAGCGUACACGUCGCAGCCCCUGUCAGAUUCUGGCGAAUCUGCGAGUUCUGCUGUAUAUCUC [C17U U26A U54C A65G], the self-cleavage was 0.08. Work on UAACAGGGGGCCACAGUAGAAGCGUCCACGUCGCAGCCCCUGUAGGAUUCUGAUGAAUCUGCGAAUUCUGCUGUAUAUCUC [C17U U26C C44A A45G G53A] yielded a self-cleavage of 0.08. Work on UAACAGGGGGCCACAGUAGAAGCGUCCACGUCGCAGCCCCAGCCAGAUUCUGGUGAGUCUGCGAGUUCUGCUGUAUAUCUC [C17U U26C U41A U43C A57G A65G] yielded a self-cleavage of 0.07. UAACAGGGGGCCACAGUAGAAGCGUCCACGUCGCAGCCCCUGCCAGAUUCUGGUGGAUCUGCGAAUUCUGCUGUAUAUCUC [C17U U26C U43C A56G] gave a self-cleavage of 0.12. In the case of UAACAGGGGGCCACAGUAGAAGCGUUCACGCCGCAGCCCCCGUCAGAUUCUGGUGAAUCCGCGAACUCUGCUGUAUAUCUC [C17U U31C U41C U60C U66C], the self-cleavage is reported as 0.05. With UAACAGGGGGCCACAGUAGAAGCGUUCACGCCGCAGCCCCUGUCAGAUUCAGGUGAAUCUGCGAAUUCUGCUGUAUUCCUC [C17U U31C U51A A77U U78C] the self-cleavage was 0.43. For UAACAGGGGGCCACAGUAGAAGCGUUCACGCCGCAGCCCCUGUCAGAUUCCGGUGAAUCUGCGAAUUCUGCUGUAUAACUC [C17U U31C U51C U78A], the self-cleavage was 0.23. UAACAGGGGGCCACAGUAGAAGCGUUCACGCCGCAGCCCCUGUCAGAUUCUGGUGAAUCGGCGAAUUCUGCUGUAUAUCUC [C17U U31C U60G] gave a self-cleavage of 0.17. In the case of UAACAGGGGGCCACAGUAGAAGCGUUCACGUCGCAGCCCCAGUCAGAUUCUGGUGAAUCUGAGAAUUAUGCUGUAUAUCUC [C17U U41A C62A C68A], the self-cleavage is reported as 0.1. For UAACAGGGGGCCACAGUAGAAGCGUUCACGUCGCAGCCCCAGUCAGAUCCCGGUGAAUCUGCGAAUUCUGAAGUAUAUCUC [C17U U41A U49C U51C C71A U72A], the self-cleavage was 0.12. With UAACAGGGGGCCACAGUAGAAGCGUUCACGUCGCAGCCCCAGUCAGAUUCUGGUGAAUCUGCGAAUUCCGCUGUAUAUCUC [C17U U41A U69C] the self-cleavage was 0.19. In the case of UAACAGGGGGCCACAGUAGAAGCGUUCACGUCGCAGCCCCCGUCGGAUUCUGGUGAACCUGCGAAUUCUGCUGUAUAUCUC [C17U U41C A45G U58C], the self-cleavage is reported as 0.26. UAACAGGGGGCCACAGUAGAAGCGUUCACGUCGCAGCCCCUGCCAGAUUCUGGUGAUUCUGCGAAUUCCGCUGUAUAUCUC [C17U U43C A57U U69C] showed a self-cleavage of 0.34. UAACAGGGGGCCACAGUAGAAGCGUUCACGUCGCAGCCCCUGGCAGAUUCUGGUGAAUCUGCGAAUUCUGCUGUAUAUUUC [C17U U43G C79U] showed a self-cleavage of 0.13. In the case of UAACAGGGGGCCACAGUAGAAGCGUUCACGUCGCAGCCCCUGUCAGACUCGGGUGAAUCUGCGAAUUCUGCUGUAUAUCUC [C17U U48C U51G], the self-cleavage is reported as 0.46. Work on UAACAGGGGGCCACAGUAGAAGCGUUCACGUCGCAGCCCCUGUCAGAUACUGGUGAAUCUGCGAAUUCUGCCGAAUAUCUC [C17U U49A U72C U74A] yielded a self-cleavage of 0.4. With UAACAGGGGGCCACAGUAGAAGCGUUCACGUCGCAGCCCCUGUCAGAUUCAGGUGAGUCUGCGAAAUCUGCUGCAUAUCUC [C17U U51A A57G U66A U74C] the self-cleavage was 0.12. Work on UAACAGGGGGCCACAGUAGAAGCGUUCACGUCGCAGCCCCUGUCAGAUUCAGGUGAAUCUGCGGAUUCUGCUGUAUAUCUC [C17U U51A A64G] yielded a self-cleavage of 0.38. UAACAGGGGGCCACAGUAGAAGCGUUCACGUCGCAGCCCCUGUCAGAUUCAGGCGAAUCUGCGAAUUCUGCUGUAUAUCUC [C17U U51A U54C] showed a self-cleavage of 0.41. UAACAGGGGGCCACAGUAGAAGCGUUCACGUCGCAGCCCCUGUCAGAUUCCGGUGAAUCUGCGGAUUCUGCUGUAUACCUC [C17U U51C A64G U78C] showed a self-cleavage of 0.09. With UAACAGGGGGCCACAGUAGAAGCGUUCACGUCGCAGCCCCUGUCAGAUUCUGGCGAAUCCGCGAGUUCUGCUGUAUAUCUC [C17U U54C U60C A65G] the self-cleavage was 0.13. Work on UAACAGGGGGCCACAGUAGAAGCGUUCACGUCGCAGCCCCUGUCAGAUUCUGGGGAAUCUGCGUAUUCUGCUGUAUAUCUC [C17U U54G A64U] yielded a self-cleavage of 0.08. Work on UAACAGGGGGCCACAGUAGAAGCGUUCACGUCGCAGCCCCUGUCAGAUUCUGGUGAAUCGGCGAACUCCACUGUAUAUCUC [C17U U60G U66C U69C G70A] yielded a self-cleavage of 0.12. Variant UAACAGGGGGCCACAGUAGAAGCGUUCACGUCGCAGCCCCUGUCAGAUUCUGGUGAAUCUGCGAAUCCUGCUAUAUAUCUC [C17U U67C G73A] has a self-cleavage of 0.45.
